We go through one compound from patent US20230021880A1, “Cladribine regimen for treating progressive forms of Multiple Sclerosis” (Merck Patent GmbH, priority 2017, published 2023).

The subject of one data set is patients with SPMS. Nature of the data set: ONWARD study: Cladribine tablets 3.5 mg/kg added on to IFN-β, SPMS patients. The data set is classed as in vivo, human. Particulars: SPMS. The text has this:
A supportive study in patients treated with Cladribine as an add-on to interferon-beta vs. placebo+interferon-beta also included a limited number of patients with secondary progressive MS (26 patients). […] There was no difference in annualized relapse rate between patients with relapsing-remitting MS and patients with secondary progressive MS with relapses.
Patients aged 18-65 years were eligible to enter the ONWARD study if they fulfilled the following criteria. • a diagnosis of RRMS or SPMS with relapses (2005 McDonald criteria) • treatment with IFN-β for ≥48 consecutive weeks before screening, with ≥1 MS relapse during that period • clinical stability (other than relapses) during the 28 days before screening • an Expanded Disability Status Scale. […]

Another data set has as its system lymphocytes. The experiment in a line: Lymphocyte counts across clinical studies (pharmacodynamic effects).

Each structure is given as a SMILES string.

For `Nc1nc(Cl)nc2c1ncn2[C@H]1C[C@H](O)[C@@H](CO)O1` [Cladribine, 2-chloro-2′deoxyadenosine], the “risk ratio of annualized relapse rate vs placebo” value in the data set on patients with SPMS (3.5 mg/kg add-on to interferon-beta) is given as 0.11. Moreover, the annualized relapse rate with patients with SPMS (Cladribine 3.5 mg/kg + IFN-β) turned out to be 0.03. Moreover, the “week from first dose at which median lymphocyte counts are back to the normal range” value in the data set on lymphocytes (cumulative dose 3.5 mg/kg) is 84 week. Also, in the data set on lymphocytes (oral Cladribine), the “effect on CD19+ B cells and CD16+/CD56+ natural killer cells” value is “reduces CD19+ B cells and CD16+/CD56+ natural killer cells”; the “effect on circulating CD4+ and CD8+ T cells” value is “rapid reductions in circulating CD4+ and CD8+ T ceils”.
